The full ranking holds about 81,000 sequences; the median of “one-hybrid fitness for binding NBS DNA” is about -0.1, and the highest 2% start at about 0.36. Some of the results follow.
B1: Caulobacter ParB omega fusion; a variant is named by its letters at X, in order, B8GW30 (parent)
chain: MESVVVGEPGMSEGRRGLGRGLSALLGEVDAAPAQAPGEQLGGSREAPIEILQRNPDQPRRTFREEDLEDLSNSIREKGVLQPILVRPSPDTAGEYQIVAGERAWRAAQRAGLKTVPIMVRELDDLAVLEIGIIENVQRADLNVLEEALSYKVLMEKFERTQENIAQTIGKSXSHVANXMRLLXLPDEVQSYLVSGELTAXHARAIAAAADPVALAKQIIEGGLSVRETEALARKAPNLSAGKSKGGRPPRVKDTDTQALESDLSSVLGLDVSIDHRGSTGTLTITYATLEQLDDLCNRLTRGI

Variants of: B1
Assay: one-hybrid fitness for binding NBS DNA (the Noc-binding site; scaled: cognate 1, non-cognate 0); higher = stronger binding
Conditions: with NBS DNA site
In short: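 Pre- and post-selection plasmids were Illumina-sequenced, three replicate libraries were pooled, and any variant with under 10 reads was removed. The libraries were Caulobacter ParB with four specificity codons randomised, selected in E. coli USO through a HIS3 reporter whose site is 19 bp from the promoter. Cells grew 48 hours at 37°C on M9 without histidine, with 0.1 mM IPTG and 5 mM 3-AT. Fitness is the log change in variant-to-wild-type read ratio, rescaled against cognate and non-cognate.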

Variant	one-hybrid fitness for binding NBS DNA
SIPL	≤ 0.2
LWKY	≤ 0.2
CSWR	≤ 0.2
KRLM	≤ 0.2
QSTH	≤ 0.2
GQHV	≤ 0.2
GDSR	≤ 0.2
FSDE	≤ 0.2
GEMR	≤ 0.2
SCFP	≤ 0.2
GKFS	≤ 0.2
WRPD	≤ 0.2
LSWC	≤ 0.2
MILM	≤ 0.2
VANM	≤ 0.2
PGPN	≤ 0.2
QNTA	≤ 0.2
CAHG	≤ 0.2
GMYC	≤ 0.2
VCST	≤ 0.2
IIES	≤ 0.2
GVPV	≤ 0.2
LSTA	≤ 0.2
DTQY	≤ 0.2

Variant	one-hybrid fitness for binding NBS DNA
RMWM	≤ 0.2
QFEL	≤ 0.2
WRPR	≤ 0.2
PISA	≤ 0.2
SIYS	≤ 0.2
NTAT	≤ 0.2
LFQT	≤ 0.2
QNPT	≤ 0.2
GVES	≤ 0.2
LITT	≤ 0.2
QYRA	0.558
MGSC	≤ 0.2
SRGL	≤ 0.2
VQRM	≤ 0.2
LYDS	≤ 0.2
KLYT	≤ 0.2
LQKW	≤ 0.2
GCNG	≤ 0.2
SGIV	≤ 0.2
WLCT	≤ 0.2
PAKP	≤ 0.2
HNAA	≤ 0.2
WSDV	≤ 0.2
QRCH	0.52

Variant	one-hybrid fitness for binding NBS DNA
SKRF	≤ 0.2
RIAT	0.376
PTML	≤ 0.2
DIYD	≤ 0.2
NNPD	≤ 0.2
APRY	≤ 0.2
PVHS	≤ 0.2
YFRR	≤ 0.2
PPWG	≤ 0.2
VVVY	≤ 0.2
QWYG	≤ 0.2
YHSF	≤ 0.2
RKYP	≤ 0.2
KRGW	≤ 0.2
KVPL	≤ 0.2
AVHL	≤ 0.2
MACR	≤ 0.2
WSYS	≤ 0.2
KCRN	≤ 0.2
KLGK	≤ 0.2
RLNH	0.201
MDKE	≤ 0.2
QYPH	≤ 0.2
MLKK	≤ 0.2

Variant	one-hybrid fitness for binding NBS DNA
PEPY	≤ 0.2
GLEA	≤ 0.2
GLAS	≤ 0.2
LLQT	≤ 0.2
QALK	≤ 0.2
HFHS	≤ 0.2
SCGH	≤ 0.2
DRAM	≤ 0.2
QQPH	≤ 0.2
DDGR	≤ 0.2
LSSK	≤ 0.2
FNTG	≤ 0.2
SRAS	≤ 0.2
TCQI	≤ 0.2
LLCS	≤ 0.2
RMPQ	≤ 0.2
CKES	≤ 0.2
EFNC	≤ 0.2
APKR	≤ 0.2
VAPG	≤ 0.2
ILYT	≤ 0.2
NAII	≤ 0.2
GVQR	≤ 0.2
SNTH	≤ 0.2

Variant	one-hybrid fitness for binding NBS DNA
NCNG	≤ 0.2
HLPL	≤ 0.2
GRHF	≤ 0.2
TRAA	≤ 0.2
FECS	≤ 0.2
PMYS	≤ 0.2
CITR	≤ 0.2
LREK	≤ 0.2
DKNK	≤ 0.2
NELY	≤ 0.2
RLQT	0.462
TCMN	≤ 0.2
PSPF	≤ 0.2
VVIL	≤ 0.2
VRSY	≤ 0.2
VKSL	≤ 0.2
GRCS	≤ 0.2
QVKV	0.213
ILSL	≤ 0.2
TQRG	≤ 0.2
RGAH	≤ 0.2
GRPC	≤ 0.2
YFKR	≤ 0.2
AHWT	≤ 0.2

Variant	one-hybrid fitness for binding NBS DNA
AHDR	≤ 0.2
PWYG	≤ 0.2
GKAS	≤ 0.2
ILWI	≤ 0.2
RFVA	≤ 0.2
EIQS	≤ 0.2
QWRH	≤ 0.2
TISG	≤ 0.2
SMAS	≤ 0.2
PGWG	≤ 0.2
HPVA	≤ 0.2
QDTW	≤ 0.2
AHHA	≤ 0.2
CYRN	≤ 0.2
FPVI	≤ 0.2
VQVR	≤ 0.2
TVLW	≤ 0.2
YNIG	≤ 0.2
FETE	≤ 0.2
KAYY	≤ 0.2
TNTA	≤ 0.2
MSSI	≤ 0.2
AEVW	≤ 0.2
VSQC	≤ 0.2

Variant	one-hybrid fitness for binding NBS DNA
EASF	≤ 0.2
PPQG	≤ 0.2
SMIK	≤ 0.2
TKAY	≤ 0.2
QNFF	≤ 0.2
HTAK	≤ 0.2
RFMP	≤ 0.2
LEES	≤ 0.2
LYKS	≤ 0.2
QFTV	≤ 0.2
NRKW	≤ 0.2
ANTR	≤ 0.2
QNAC	≤ 0.2
VKWR	≤ 0.2
DCQS	≤ 0.2
YKDS	0.297
SPQF	≤ 0.2
CCAG	≤ 0.2
CNMK	≤ 0.2
SHHS	≤ 0.2
SEAP	≤ 0.2
QTSM	0.232
QHLI	≤ 0.2
SKRY	≤ 0.2

Variant	one-hybrid fitness for binding NBS DNA
NMYV	≤ 0.2
PQVR	≤ 0.2
RPYC	≤ 0.2
SKVR	≤ 0.2
PPQL	≤ 0.2
RVQG	≤ 0.2
FWTT	≤ 0.2
HCNT	≤ 0.2
LRIL	≤ 0.2
TQSY	≤ 0.2
CWVA	≤ 0.2
FLHT	≤ 0.2
LPTQ	≤ 0.2
MEFT	≤ 0.2
QVFC	≤ 0.2
VIAC	≤ 0.2
MLWT	≤ 0.2
LAQF	≤ 0.2
RQSE	≤ 0.2
VGVI	≤ 0.2
KMWS	≤ 0.2
LVAP	≤ 0.2
TWDG	≤ 0.2
PSHG	≤ 0.2

Variant	one-hybrid fitness for binding NBS DNA
QCIM	≤ 0.2
EEGV	≤ 0.2
VYKM	≤ 0.2
QVVA	≤ 0.2
SMGR	≤ 0.2
NGGC	≤ 0.2
YGWT	≤ 0.2
FCSG	≤ 0.2
VLLH	≤ 0.2
SSWW	≤ 0.2
NSRI	≤ 0.2
CNSM	≤ 0.2
MPVF	≤ 0.2
FMWV	≤ 0.2
DIHL	≤ 0.2
QQQE	≤ 0.2
VKLF	≤ 0.2
INEV	≤ 0.2
CAKW	≤ 0.2
TLSG	≤ 0.2
CVSW	≤ 0.2
AWWW	≤ 0.2
DPLL	≤ 0.2
VVDG	≤ 0.2

Variant	one-hybrid fitness for binding NBS DNA
RSQS	0.433
DSSP	≤ 0.2
RFWL	≤ 0.2
QDGR	≤ 0.2
VYSH	≤ 0.2
HTFT	≤ 0.2
SPMW	≤ 0.2
TVAF	≤ 0.2
YCQA	≤ 0.2
PSGD	≤ 0.2
RWRW	≤ 0.2
KMAT	≤ 0.2
PFAC	≤ 0.2
NSGK	≤ 0.2
GTFD	≤ 0.2
WEAC	≤ 0.2
LVVM	≤ 0.2
HLIR	≤ 0.2
LLTT	≤ 0.2
AGHC	≤ 0.2
RLVV	≤ 0.2
PYFT	≤ 0.2
SCLN	≤ 0.2
FFQG	≤ 0.2

Variant	one-hybrid fitness for binding NBS DNA
NHNS	≤ 0.2
DAMT	≤ 0.2
VVHE	≤ 0.2
RKCQ	≤ 0.2
LSQV	≤ 0.2
AIVC	≤ 0.2
APLW	≤ 0.2
FEYS	≤ 0.2
QPAY	≤ 0.2
QKMC	≤ 0.2
VFYR	≤ 0.2
RVRM	≤ 0.2
AYAT	≤ 0.2
PFGW	≤ 0.2
DMQT	≤ 0.2
MIAS	≤ 0.2
TAAN	≤ 0.2
FRFR	≤ 0.2
SCCV	≤ 0.2
MQKR	≤ 0.2
YMQS	≤ 0.2
HPLW	≤ 0.2
INST	≤ 0.2
QAKG	0.313

Variant	one-hybrid fitness for binding NBS DNA
DLPH	≤ 0.2
FNAI	≤ 0.2
ICPR	≤ 0.2
KEMT	≤ 0.2
QNID	≤ 0.2
DVTY	≤ 0.2
ASQH	≤ 0.2
KVEI	≤ 0.2
RVFF	≤ 0.2
QCQL	≤ 0.2
CKPT	≤ 0.2
RIID	≤ 0.2
PWQR	≤ 0.2
MVRT	≤ 0.2
WMIG	≤ 0.2
GSFP	≤ 0.2
LVVG	≤ 0.2
GHVL	≤ 0.2
HMLT	≤ 0.2
PIKM	≤ 0.2
MHRV	≤ 0.2
LIAN	≤ 0.2
RGWL	≤ 0.2
LRNK	≤ 0.2

Variant	one-hybrid fitness for binding NBS DNA
LRDR	≤ 0.2
RGTN	≤ 0.2
GSHY	≤ 0.2
SQYM	≤ 0.2
RFVS	≤ 0.2
IAAF	≤ 0.2
RMRI	≤ 0.2
AESY	≤ 0.2
WCMR	≤ 0.2
CSTC	≤ 0.2
SFVC	≤ 0.2
WDSC	≤ 0.2
AMDT	≤ 0.2
QSYG	≤ 0.2
SYII	≤ 0.2
TAVD	≤ 0.2
WQRR	0.21
NARL	≤ 0.2

Source: a collection of fitness landscapes (doi:10.1016/j.celrep.2020.107928)
